In the supplement of paper PMC8728848:
This is one part of the list.

Experiments:
Assay in all cases: glycan array binding signal (z-score within array); higher = stronger binding
Conditions in all cases: glycan notation: IUPAC condensed, linker removed
[1] = biological target: Neu5Ac(a2-3)Gal(b1-3)]Neu5Ac(a2-3)Gal(b1-4)]GlcNAc
Method in brief: (§1)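 The binding signal is a Z-score computed within each array and averaged over linkers. Arrays of the same protein sequence at different concentrations or buffers were also averaged together. Data originate from 3228 arrays in the Consortium for Functional Glycomics database, kept only where the protein sequence was available.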

[2] = biological target: Neu5Ac(a2-3)Gal(b1-4)Glc
Method in brief: as §1

[3] = biological target: Neu5Ac(a2-3)Gal(b1-4)GlcNAc
Method in brief: as §1

[4] = biological target: Neu5Ac(a2-3)Gal(b1-4)GlcNAc(b1-2)Man
Method in brief: as §1

[5] = biological target: Neu5Ac(a2-3)Gal(b1-4)GlcNAc(b1-2)Man(a1-3)[GlcNAc(b1-4)][Neu5Ac(a2-3)Gal(b1-4)GlcNAc(b1-2)Man(a1-6)]Man(b1-4)GlcNAc(b1-4)GlcNAc
Method in brief: as §1

[6] = biological target: Neu5Ac(a2-3)Gal(b1-4)GlcNAc(b1-2)Man(a1-3)[Neu5Ac(a2-3)Gal(b1-4)GlcNAc(b1-2)Man(a1-6)]Man(b1-4)GlcNAc(b1-4)GlcNAc
Method in brief: as §1

[7] = biological target: Neu5Ac(a2-3)Gal(b1-4)GlcNAc(b1-2)Man(a1-3)[Neu5Ac(a2-3)Gal(b1-4)GlcNAc(b1-2)Man(a1-6)]Man(b1-4)GlcNAc(b1-4)[Fuc(a1-6)]GlcNAc
Method in brief: as §1

[8] = biological target: Neu5Ac(a2-3)Gal(b1-4)GlcNAc(b1-2)Man(a1-3)[Neu5Ac(a2-6)Gal(b1-4)GlcNAc(b1-2)Man(a1-6)]Man(b1-4)GlcNAc(b1-4)GlcNAc
Method in brief: as §1

[9] = biological target: Neu5Ac(a2-3)Gal(b1-4)GlcNAc(b1-2)[Neu5Ac(a2-3)Gal(b1-4)GlcNAc(b1-4)]Man(a1-3)[GlcNAc(b1-4)][Neu5Ac(a2-3)Gal(b1-4)GlcNAc(b1-2)[Neu5Ac(a2-3)Gal(b1-4)GlcNAc(b1-6)]Man(a1-6)]Man(b1-4)GlcNAc(b1-4)GlcNAc
Method in brief: as §1

[10] = biological target: Neu5Ac(a2-3)Gal(b1-4)GlcNAc(b1-2)[Neu5Ac(a2-3)Gal(b1-4)GlcNAc(b1-4)]Man(a1-3)[GlcNAc(b1-4)][Neu5Ac(a2-3)Gal(b1-4)GlcNAc(b1-4)Man(a1-6)]Man(b1-4)GlcNAc(b1-4)GlcNAc
Method in brief: as §1

[11] = biological target: Neu5Ac(a2-3)Gal(b1-4)GlcNAc(b1-2)[Neu5Ac(a2-3)Gal(b1-4)GlcNAc(b1-6)]Man(a1-6)[Neu5Ac(a2-3)Gal(b1-4)GlcNAc(b1-2)Man(a1-3)][GlcNAc(b1-4)]Man(b1-4)GlcNAc(b1-4)GlcNAc
Method in brief: as §1

[12] = biological target: Neu5Ac(a2-3)Gal(b1-4)GlcNAc(b1-3)Gal
Method in brief: as §1

[13] = biological target: Neu5Ac(a2-3)Gal(b1-4)GlcNAc(b1-3)Gal(b1-3)GlcNAc
Method in brief: as §1

[14] = biological target: Neu5Ac(a2-3)Gal(b1-4)GlcNAc(b1-3)Gal(b1-4)GlcNAc
Method in brief: as §1

[15] = biological target: Neu5Ac(a2-3)Gal(b1-4)GlcNAc(b1-3)Gal(b1-4)GlcNAc(b1-2)Man(a1-3)[Neu5Ac(a2-3)Gal(b1-4)GlcNAc(b1-3)Gal(b1-4)GlcNAc(b1-2)Man(a1-6)]Man(b1-4)GlcNAc(b1-4)GlcNAc
Method in brief: as §1

[16] = biological target: Neu5Ac(a2-3)Gal(b1-4)GlcNAc(b1-3)Gal(b1-4)GlcNAc(b1-3)Gal(b1-4)GlcNAc
Method in brief: as §1

[17] = biological target: Neu5Ac(a2-3)Gal(b1-4)GlcNAc(b1-3)Gal(b1-4)GlcNAc(b1-3)Gal(b1-4)GlcNAc(b1-2)Man(a1-3)[Neu5Ac(a2-3)Gal(b1-4)GlcNAc(b1-3)Gal(b1-4)GlcNAc(b1-3)Gal(b1-4)GlcNAc(b1-2)Man(a1-6)]GalNAc
Method in brief: as §1

[18] = biological target: Neu5Ac(a2-3)Gal(b1-4)GlcNAc(b1-3)Gal(b1-4)GlcNAc(b1-3)GalNAc
Method in brief: as §1

[19] = biological target: Neu5Ac(a2-3)Gal(b1-4)GlcNAc(b1-3)Gal(b1-4)GlcNAc(b1-3)[Neu5Ac(a2-3)Gal(b1-4)GlcNAc(b1-3)Gal(b1-4)GlcNAc(b1-6)]GalNAc
Method in brief: as §1

[20] = biological target: Neu5Ac(a2-3)Gal(b1-4)GlcNAc(b1-3)Gal(b1-4)GlcNAc(b1-6)[Gal(b1-3)]GalNAc
Method in brief: as §1

[21] = biological target: Neu5Ac(a2-3)Gal(b1-4)GlcNAc(b1-3)Gal(b1-4)[Fuc(a1-3)]GlcNAc
Method in brief: as §1

[22] = biological target: Neu5Ac(a2-3)Gal(b1-4)GlcNAc(b1-3)GalNAc
Method in brief: as §1

[23] = biological target: Neu5Ac(a2-3)Gal(b1-4)GlcNAc(b1-3)[Neu5Ac(a2-3)Gal(b1-4)GlcNAc(b1-6)]GalNAc
Method in brief: as §1

[24] = biological target: Neu5Ac(a2-3)Gal(b1-4)GlcNAc(b1-6)GalNAc
Method in brief: as §1

[25] = biological target: Neu5Ac(a2-3)Gal(b1-4)GlcNAc(b1-6)[Gal(b1-3)]GalNAc
Method in brief: as §1

[26] = biological target: Neu5Ac(a2-3)Gal(b1-4)GlcNAc(b1-6)[Neu5Ac(a2-3)Gal(b1-3)]GalNAc
Method in brief: as §1

[27] = biological target: Neu5Ac(a2-3)Gal(b1-4)GlcNAc6S
Method in brief: as §1

[28] = biological target: Neu5Ac(a2-3)Gal(b1-4)[Fuc(a1-3)]GlcNAc
Method in brief: as §1

[29] = biological target: Neu5Ac(a2-3)Gal(b1-4)[Fuc(a1-3)]GlcNAc(b1-2)Man
Method in brief: as §1

[30] = biological target: Neu5Ac(a2-3)Gal(b1-4)[Fuc(a1-3)]GlcNAc(b1-3)Gal
Method in brief: as §1

[31] = biological target: Neu5Ac(a2-3)Gal(b1-4)[Fuc(a1-3)]GlcNAc(b1-3)Gal(b1-4)GlcNAc
Method in brief: as §1

[32] = biological target: Neu5Ac(a2-3)Gal(b1-4)[Fuc(a1-3)]GlcNAc(b1-3)Gal(b1-4)[Fuc(a1-3)]GlcNAc(b1-3)Gal(b1-4)[Fuc(a1-3)]GlcNAc
Method in brief: as §1

[33] = biological target: Neu5Ac(a2-3)Gal(b1-4)[Fuc(a1-3)]GlcNAc(b1-3)GalNAc
Method in brief: as §1

[34] = biological target: Neu5Ac(a2-3)Gal(b1-4)[Fuc(a1-3)]GlcNAc(b1-6)[Gal(b1-3)]GalNAc
Method in brief: as §1

[35] = biological target: Neu5Ac(a2-3)Gal(b1-4)[Fuc(a1-3)]GlcNAc(b1-6)[Neu5Ac(a2-3)Gal(b1-3)]GalNAc
Method in brief: as §1

[36] = biological target: Neu5Ac(a2-3)Gal(b1-4)[Fuc(a1-3)]GlcNAc6S
Method in brief: as §1

[37] = biological target: Neu5Ac(a2-3)Gal6S(b1-4)GlcNAc
Method in brief: as §1

[38] = biological target: Neu5Ac(a2-3)Gal6S(b1-4)[Fuc(a1-3)]GlcNAc
Method in brief: as §1

B1: Pwp2 (Candida glabrata) (protein)
chain: MGSSHHHHHHSSGLVPRGSHMASKNPVELNNVCTFPNDYGRIPGFTVLVGRLGLLISASDYKELLRYPGAFLIATQDTMTTSPNFELTGFPFFTGLYGLTVFPLDLLVELRGYFVPPNSGQYTFTLSDSDDAAIIFLGNPSAFPCGDLQNWPKPSEEDITVTDHLFPSRTLYLIEGVAYPMRIAYYNGIGAGRLNAAFIDPSGTRHTNWEGYIWQYDPCSTCTYS
glycan array binding signal (z-score) [1]: -0.501
glycan array binding signal (z-score) [2]: -0.112
glycan array binding signal (z-score) [3]: -0.767
glycan array binding signal (z-score) [4]: -0.276
glycan array binding signal (z-score) [5]: -0.475
glycan array binding signal (z-score) [6]: -0.115
glycan array binding signal (z-score) [7]: 0.96
glycan array binding signal (z-score) [8]: 0.204
glycan array binding signal (z-score) [9]: -0.464
glycan array binding signal (z-score) [10]: -0.533
glycan array binding signal (z-score) [11]: 4.22
glycan array binding signal (z-score) [12]: -0.399
glycan array binding signal (z-score) [13]: -0.645
glycan array binding signal (z-score) [14]: -0.464
glycan array binding signal (z-score) [15]: -0.165
glycan array binding signal (z-score) [16]: -0.783
glycan array binding signal (z-score) [17]: 0.272
glycan array binding signal (z-score) [18]: 1.15
glycan array binding signal (z-score) [19]: -0.034
glycan array binding signal (z-score) [20]: 1.44
glycan array binding signal (z-score) [21]: 2.37
glycan array binding signal (z-score) [22]: -0.508
glycan array binding signal (z-score) [23]: -0.452
glycan array binding signal (z-score) [24]: 4.01
glycan array binding signal (z-score) [25]: 0.811
glycan array binding signal (z-score) [26]: -0.533
glycan array binding signal (z-score) [27]: -0.485
glycan array binding signal (z-score) [28]: -0.329
glycan array binding signal (z-score) [29]: 1.42
glycan array binding signal (z-score) [30]: -0.247
glycan array binding signal (z-score) [31]: 0.095
glycan array binding signal (z-score) [32]: -0.334
glycan array binding signal (z-score) [33]: 0.106
glycan array binding signal (z-score) [34]: -0.613
glycan array binding signal (z-score) [35]: 1.98
glycan array binding signal (z-score) [36]: 0.309
glycan array binding signal (z-score) [37]: -0.572
glycan array binding signal (z-score) [38]: -0.356
